Assays:
[1] = target: Cyclin-dependent kinase 1/cyclin B (Homo sapiens, UniProt O95067+P06493+P14635+Q8WWL7); type: cell-based, Marthasterias glacialis, Oocyte
[2] = target: Cyclin-dependent kinase 5/CDK5 activator 1 (Homo sapiens, UniProt Q00535); type: protein-complex assay

Row | SMILES | IC50 [1] | IC50 [2]
1 | CC(C)(C)OC(=O)n1c2c(c3cc(Br)ccc31)CC(=O)Nc1ccccc1-2 | 70 µM | 
2 | O=C1Cc2c([nH]c3ccccc23)-c2cc(I)ccc2N1 | 3.7 µM | 
3 | N#Cc1ccc2c(c1)-c1[nH]c3ccccc3c1CC(=O)N2 | 3.3 µM | 450 µM
4 | Nc1ccc2[nH]c3c(c2c1)CC(=O)Nc1ccccc1-3 | 20 µM | 30 µM
5 | NCC(=O)c1ccc2[nH]c3c(c2c1)CC(=O)Nc1ccccc1-3 |  | 5.5 µM
6 | O=C1Cc2c([nH]c3cc(Cl)cc(Cl)c23)-c2ccccc2N1 | 2.5 µM | 
7 | C=C(C)n1c2c(c3cc(Br)ccc31)CC(=O)Nc1ccccc1-2 | 60 µM | 
8 | COc1ccc2c(c1)-c1[nH]c3ccc([N+](=O)[O-])cc3c1CC(=O)N2 | 0.08 µM | 0.07 µM
9 | CCn1c2c(c3cc(Br)ccc31)CC(=O)Nc1ccccc1-2 | 23 µM | 
10 | O=C1Cc2c([nH]c3ccc(Br)cc23)-c2ccc(O)cc2N1 | 0.6 µM | 0.83 µM
11 | COc1ccc2c(c1)NC(=O)Cc1c-2[nH]c2ccc(C#N)cc12 | 1.2 µM | 1 µM
12 | CC(=O)OCn1c2c(c3cc(Br)ccc31)CC(=O)Nc1ccccc1-2 | 1.4 µM | 
13 | COc1ccc2c(c1)NC(=O)Cc1c-2[nH]c2ccc(C(F)(F)F)cc12 | 0.7 µM | 2.2 µM
14 | NCCCCOc1ccc2c(c1)NC(=O)Cc1c-2[nH]c2ccc(Br)cc12 | 0.7 µM | 420 µM

From ChEMBL document CHEMBL1148295, “Evaluation and comparison of 3D-QSAR CoMSIA models for CDK1, CDK5, and GSK-3 inhibition by paullones” (J Med Chem, 2004)
